{
  "source": "PubChem BioAssay AID504832",
  "about": "(National Center for Advancing Translational Sciences (NCATS), 2011)",
  "note": "“And” between values parts separate entries of the source, which are not always exact repeats. Equal entries are not always repeated. Hit rate of the full screen: of about 310,000 compounds, about 18,000 (5.8%) were called active. The inconclusive results got no clear call from the source; some entries with a clear call stand among them for comparison. The call rests on the fitted dose curve; in most records, active means well fitted inhibition curve with a large enough effect; inconclusive means small, poorly fitted or top-dose-only effect, or another doubt; inactive means no such curve, though single readings can be large or run the other way. A potency beside an inconclusive call is a rough fit, not a confirmed value. On the % scale 0 is the no-effect control and ±100 the full control effect; potency means the concentration at half of the fitted maximal effect; tags describe the fitted curve by direction and shape.",
  "data": [
    {"assay": "Primary qHTS for delayed death inhibitors of the malarial parasite plastid, 48 hour incubation", "conditions": "P. falciparum luciferase growth in erythrocytes; series mostly up to 28.7 µM; activity change, negative = inhibition: at the top concentration", "outline": "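Compounds are pin-transferred into medium, infected erythrocytes (2% hematocrit, 0.1% parasitemia final) are added, and plates sit one parasite generation at 37 C in 5% CO2. Detection reagent is then added and luminescence measured.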", "values": [
      {"smiles": "c1ccc(-c2cc(-c3nc4ccccc4[nH]3)c3ccccc3n2)cc1", "Potency": "inconclusive: 18.5 µM [inhibitor, single point]"},
      {"smiles": "COc1ccc(S(=O)(=O)N2CCOCC2)cc1NC(=O)c1ccccc1-c1ccc(C(F)(F)F)cc1", "Potency": "inconclusive: 10.4 µM [inhibitor, partial curve]"},
      {"smiles": "CCn1c(CC(=O)Nc2ccccc2)nnc1SCC(=O)Nc1ccccc1C(=O)OC", "Potency": "inconclusive: 11.7 µM [inhibitor, partial curve, poor fit]"},
      {"smiles": "CCCNC(=O)C1CN(S(=O)(=O)c2ccccc2)CCN1S(=O)(=O)c1ccccc1", "note": "(configuration not stated)", "activity change, negative = inhibition": "inactive: -27.5%"},
      {"smiles": "COc1ccccc1C(=O)NCC(=O)OCC(=O)N1CC(C)OC(C)C1", "note": "(configuration not stated)", "Potency": "inconclusive: 18.5 µM [inhibitor, single point]"},
      {"smiles": "CC[n+]1ccc(C)c2cc(S(=O)C(F)(F)F)ccc21", "note": "(configuration not stated)", "Potency": "active: 3.7 µM"},
      {"smiles": "CCCCn1c(N)c(N(CC(C)C)C(=O)CSc2ccccc2C)c(=O)[nH]c1=O", "activity change, negative = inhibition": "inactive: 2.38%"},
      {"smiles": "Cc1cc(C(=O)CSc2nnc(-c3ccccc3)o2)c(C)n1CC1COc2ccccc2O1", "note": "(configuration not stated)", "Potency": "inconclusive: 0.828 µM [inhibitor, full curve]"},
      {"smiles": "COCc1cc(C)nc(SCC(=O)Nc2ccc3c(c2)OCCO3)c1C#N", "activity change, negative = inhibition": "inactive: 49.1%"},
      {"smiles": "O=C(N/N=C/c1ccccc1O)c1cccc(C(F)(F)F)c1", "Potency": "inconclusive: 14.7 µM [inhibitor, single point]"},
      {"smiles": "COC(=O)C1=CN(C(C)C)C=C(C(=O)OC)C1c1cccc(OC)c1", "Potency": "inconclusive: 4.15 µM [inhibitor, partial curve]"},
      {"smiles": "COc1ccc(-n2c(Cc3cccn3C)nnc2SCC(=O)Nc2cccc(F)c2)cc1", "Potency": "active: 8.28 µM"},
      {"smiles": "CCOc1ccccc1-n1nnnc1SCC(=O)NCC1(N2CCOCC2)CCCCC1", "Potency": "inconclusive: 14.7 µM [inhibitor, partial curve]"},
      {"smiles": "C/C(=N\\NC(=O)c1c[nH]c2ccccc12)c1ccccn1", "Potency": "inconclusive: 2.33 µM [inhibitor, single point]"},
      {"smiles": "CCCCn1c(CCC)nc([N+](=O)[O-])c1Sc1ccc(Cl)cn1", "Potency": "active: 10.4 µM"},
      {"smiles": "CC(N)=Nc1ccc([N+](=O)[O-])cc1", "activity change, negative = inhibition": "inactive: 7.67%"},
      {"smiles": "NCCc1nc(-c2ccccc2)cs1", "activity change, negative = inhibition": "inactive: -4.64%"},
      {"smiles": "COc1cc(C(=O)Nc2nc(-c3cc(C)ccc3C)c(C)s2)ccc1OCC(=O)Nc1ccc(F)cc1", "Potency": "inconclusive: 18.5 µM [inhibitor, single point]"},
      {"smiles": "Cc1ccc(-c2nnn(CC(=O)N(Cc3ccco3)C(C(=O)NC(C)(C)C)c3ccncc3)n2)o1", "note": "(configuration not stated)", "Potency": "active: 14.7 µM"},
      {"smiles": "COc1ccc(C(=O)Nc2ccc(N3CCOCC3)cc2)cc1S(=O)(=O)N1CCCC1", "Potency": "inconclusive: 18.5 µM [inhibitor, single point]"},
      {"smiles": "O=C(CCN1C(=O)c2ccccc2C1=O)Nc1sc2c(c1C(=O)NCc1ccco1)CCCC2", "Potency": "inconclusive: 2.33 µM [inhibitor, partial curve, poor fit]"},
      {"smiles": "CC(C)Oc1cccc(C(=O)NC(=S)Nc2ccc(Cl)c(C(=O)O)c2)c1", "activity change, negative = inhibition": "inactive: 52.2%"},
      {"smiles": "CCOC(=O)C(C)(C)N(Cc1cccc(C)c1)S(=O)(=O)c1ccc(Cl)c([N+](=O)[O-])c1", "Potency": "inconclusive: 18.5 µM [inhibitor, partial curve, poor fit]"},
      {"smiles": "Cc1cc(-c2ccc(N=Nc3c(S(=O)(=O)O)cc4cc(S(=O)(=O)O)cc(N)c4c3O)c(C)c2)ccc1N=Nc1c(S(=O)(=O)O)cc2cc(S(=O)(=O)O)cc(N)c2c1O", "Potency": "active: 6.57 µM"},
      {"smiles": "Cc1cc(/C=C(/C#N)c2cccc(Cl)c2)c(C)n1C", "activity change, negative = inhibition": "inactive: 36.8%"},
      {"smiles": "Cc1cc(C)n(-c2nc(NCCO)c3c4c(sc3n2)CCCC4)n1", "Potency": "inconclusive: 11.7 µM [inhibitor, single point]"},
      {"smiles": "CCc1ccc(NC(=O)C2CCCN(S(=O)(=O)c3c(C)[nH]c(=O)[nH]c3=O)C2)cc1", "note": "(configuration not stated)", "Potency": "inconclusive: 0.0023 µM [inhibitor, full curve, poor fit]"},
      {"smiles": "CN(CCOc1ccccc1)C(=O)c1ccc(Cl)c(S(=O)(=O)N2CCCCC2)c1", "Potency": "inconclusive: 10.4 µM [inhibitor, single point]"},
      {"smiles": "Cc1ccccc1CSc1nn2c(=O)c(C)nnc2s1", "Potency": "active: 5.22 µM"},
      {"smiles": "Cc1nc2nc(C)c(CCC(=O)NCCCN3CCN(c4cccc(Cl)c4)CC3)c(C)n2n1", "Potency": "inconclusive: 18.5 µM [inhibitor, single point] and inconclusive: 18.5 µM [inhibitor, partial curve, poor fit]"},
      {"smiles": "CCN(CC(=O)Nc1ccc(N2CCOCC2)cc1)CC(=O)NC(C)(C)C", "Potency": "inconclusive: 0.0023 µM [inhibitor, full curve, poor fit]"},
      {"smiles": "CCn1cc2nc(SCC(=O)Nc3ccc(OC)c(OC)c3)n(Cc3ccc(OC)cc3)c(=O)c2n1", "Potency": "inconclusive: 8.28 µM [inhibitor, partial curve]"},
      {"smiles": "COC(=O)c1c(NC(=O)C(=O)N2CCOCC2)sc2c1CCC2", "activity change, negative = inhibition": "inactive: 2.55%"},
      {"smiles": "CC(/C=N/O)Cc1ccc2c(c1)OCO2", "note": "(configuration not stated)", "Potency": "inconclusive: 4.15 µM [inhibitor, single point]"},
      {"smiles": "Cc1ccc(OCC(=O)N2CCN(S(=O)(=O)c3ccc4c(c3)OCCO4)CC2)c(C)c1", "Potency": "inconclusive: 14.7 µM [inhibitor, single point]"},
      {"smiles": "CC(=O)OCC[n+]1c(C)n(-c2ccccc2)c2ccc(Cl)cc21", "Potency": "inconclusive: 13.1 µM [inhibitor, partial curve]"},
      {"smiles": "Cc1ccc2c(c1)N(C(=O)CCC(=O)NCCN1CCOCC1)CC(C)O2", "note": "(configuration not stated)", "activity change, negative = inhibition": "inactive: 0.573%"},
      {"smiles": "Cc1ccc(S(=O)(=O)N(C)c2ccc3c(ncn3C)c2[N+](=O)[O-])cc1", "Potency": "inconclusive: 13.1 µM [inhibitor, single point]"},
      {"smiles": "S=C(NC1CCCCC1)c1ccc2c(c1)OCO2", "activity change, negative = inhibition": "inactive: 26.5%"},
      {"smiles": "CC(C)(C)n1nc2c(c1NC(=O)c1ccc(Cl)c([N+](=O)[O-])c1)CS(=O)(=O)C2", "Potency": "inconclusive: 13.1 µM [inhibitor, partial curve, poor fit]"},
      {"smiles": "CCSc1nnc(-c2ccc(S(=O)(=O)N3CCOCC3)cc2)n1C", "activity change, negative = inhibition": "inactive: -25%"},
      {"smiles": "Cc1cc(=O)n2c(C(=O)Nc3ccc(C(=O)OC(C)C)cc3)c(C(=O)Nc3ccccc3)sc2n1", "Potency": "inconclusive: 9.28 µM [inhibitor, partial curve, poor fit]"}
    ]}
  ]
}
